According to the BET-seq Pho4 binding data (Le et al. 2018):
The list shows a part of the results. Values were computed here from the reads of four pooled replicates and scatter widely.

These sequences were tested against T1, Pho4 (S. cerevisiae) (UniProt P07270) (assay: relative binding free energy (BET-seq); higher = weaker binding). Settings: reference: library average.
T1 sequence: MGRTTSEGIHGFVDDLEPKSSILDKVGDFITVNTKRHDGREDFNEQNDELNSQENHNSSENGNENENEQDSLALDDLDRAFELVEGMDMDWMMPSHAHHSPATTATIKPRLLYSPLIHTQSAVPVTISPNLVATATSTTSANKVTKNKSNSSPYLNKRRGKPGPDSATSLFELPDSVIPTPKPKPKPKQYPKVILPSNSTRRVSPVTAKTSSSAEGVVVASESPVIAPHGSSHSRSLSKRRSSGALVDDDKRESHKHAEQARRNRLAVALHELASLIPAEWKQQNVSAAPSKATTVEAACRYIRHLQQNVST
With TCTGTCACGTGGCGTG the “relative binding free energy” value was 0.05 kcal/mol. For AGGAGCACGTGTGGGT, the “relative binding free energy” value was 0.05 kcal/mol. For TGAGTCACGTGATGTA, the “relative binding free energy” value was 0.07 kcal/mol. For AGTGCCACGTGAGGAT, the “relative binding free energy” value was 0.3 kcal/mol. With TTAATCACGTGAAGGA the “relative binding free energy” value was 0.26 kcal/mol. With GATTACACGTGTGTAA the “relative binding free energy” value was 0.19 kcal/mol. For GTAATCACGTGGGCTG, the “relative binding free energy” value was 0.01 kcal/mol. In the case of GTCTGCACGTGCGGGG, the “relative binding free energy” value is reported as -0.06 kcal/mol. In the case of GTTTGCACGTGTCAGT, the “relative binding free energy” value is reported as 0.07 kcal/mol. With GGCTACACGTGGTGAT the “relative binding free energy” value was 0.13 kcal/mol. TTAATCACGTGCGGTT was tested, and the “relative binding free energy” value was 0.27 kcal/mol. For CTTCTCACGTGGGGGT, the “relative binding free energy” value was 0.14 kcal/mol. For AGGGGCACGTGGCATG, the “relative binding free energy” value was -0.31 kcal/mol. ATGGTCACGTGCTGTC was tested, and the “relative binding free energy” value was 0.03 kcal/mol. In the case of GTGGGCACGTGGATCA, the “relative binding free energy” value is reported as 0 kcal/mol. For TTGTTCACGTGGGTAG, the “relative binding free energy” value was 0.18 kcal/mol. With CGAGGCACGTGGCGGT the “relative binding free energy” value was -0.23 kcal/mol. TTATTCACGTGTATCG was tested, and the “relative binding free energy” value was 0.43 kcal/mol. For GATCTCACGTGGTGTT, the “relative binding free energy” value was 0.32 kcal/mol. ATAAACACGTGGCGTT was tested, and the “relative binding free energy” value was -0.02 kcal/mol. For GCGGTCACGTGCGTGA, the “relative binding free energy” value was 0.08 kcal/mol. AGCGCCACGTGGCGGG was tested, and the “relative binding free energy” value was -0.18 kcal/mol. With GGTAACACGTGTATTG the “relative binding free energy” value was 0.13 kcal/mol. In the case of ATGGGCACGTGGGCTC, the “relative binding free energy” value is reported as -0.29 kcal/mol. With AGTGACACGTGAATTG the “relative binding free energy” value was 0.22 kcal/mol. In the case of CACGGCACGTGGGGAT, the “relative binding free energy” value is reported as -0.04 kcal/mol. GTGTTCACGTGTACTT was tested, and the “relative binding free energy” value was 0.31 kcal/mol. For AATGACACGTGAGGGG, the “relative binding free energy” value was 0.1 kcal/mol. In the case of TGTAACACGTGAATAT, the “relative binding free energy” value is reported as 0.3 kcal/mol. CGAATCACGTGGAGGG was tested, and the “relative binding free energy” value was 0.16 kcal/mol. With ATTGGCACGTGGTCCT the “relative binding free energy” value was -0.2 kcal/mol. With AAGGTCACGTGGACGG the “relative binding free energy” value was 0.07 kcal/mol. AGAGTCACGTGTACTT was tested, and the “relative binding free energy” value was 0.14 kcal/mol. For AGGGCCACGTGGATTT, the “relative binding free energy” value was 0.05 kcal/mol. In the case of GTCATCACGTGGGGAA, the “relative binding free energy” value is reported as 0.2 kcal/mol. CTTGCCACGTGAGATG was tested, and the “relative binding free energy” value was 0.3 kcal/mol. With TACGTCACGTGTTTGT the “relative binding free energy” value was 0.05 kcal/mol. With GAGCTCACGTGCGGGG the “relative binding free energy” value was 0.18 kcal/mol. For TGCGGCACGTGGTTAT, the “relative binding free energy” value was -0.18 kcal/mol. For TTTCTCACGTGGGTCG, the “relative binding free energy” value was 0.27 kcal/mol. TGGATCACGTGAGGCG was tested, and the “relative binding free energy” value was 0.32 kcal/mol. For CAATGCACGTGGGGAG, the “relative binding free energy” value was -0.09 kcal/mol. With CGAATCACGTGATGGT the “relative binding free energy” value was 0.17 kcal/mol. With AGTTACACGTGTATAA the “relative binding free energy” value was 0.11 kcal/mol. In the case of TGTTCCACGTGTCTGT, the “relative binding free energy” value is reported as -0.13 kcal/mol. In the case of GATAACACGTGGTTAG, the “relative binding free energy” value is reported as -0.01 kcal/mol. For GATGTCACGTGCGGTG, the “relative binding free energy” value was 0.14 kcal/mol. For ATTTTCACGTGGGTTT, the “relative binding free energy” value was 0.21 kcal/mol. With TTTCGCACGTGAATAA the “relative binding free energy” value was 0.34 kcal/mol. With GATGTCACGTGATCTG the “relative binding free energy” value was 0.26 kcal/mol. For TGTAACACGTGTGCTT, the “relative binding free energy” value was 0.05 kcal/mol. TTGGGCACGTGATCGG was tested, and the “relative binding free energy” value was -0.06 kcal/mol. AAAATCACGTGTTGTT was tested, and the “relative binding free energy” value was 0.18 kcal/mol. In the case of CTGTGCACGTGGAGAG, the “relative binding free energy” value is reported as -0.18 kcal/mol. GGGCACACGTGGAGTA was tested, and the “relative binding free energy” value was 0.11 kcal/mol. With ATTACCACGTGGTATT the “relative binding free energy” value was 0.02 kcal/mol. With CGTTGCACGTGCGCGG the “relative binding free energy” value was -0.19 kcal/mol. AGTAACACGTGGATAG was tested, and the “relative binding free energy” value was 0.05 kcal/mol. With TAAATCACGTGGGGCT the “relative binding free energy” value was -0.11 kcal/mol. For AGCTGCACGTGTTGGA, the “relative binding free energy” value was 0.03 kcal/mol. In the case of GTTGACACGTGACAGG, the “relative binding free energy” value is reported as 0.2 kcal/mol. For GTGGCCACGTGTTTTT, the “relative binding free energy” value was 0.2 kcal/mol. With GAAGGCACGTGAGGTC the “relative binding free energy” value was 0.18 kcal/mol. In the case of GATTGCACGTGGTTAA, the “relative binding free energy” value is reported as 0.13 kcal/mol. In the case of GGTTGCACGTGTGCAC, the “relative binding free energy” value is reported as 0.1 kcal/mol. GATATCACGTGGGGGC was tested, and the “relative binding free energy” value was 0.09 kcal/mol. For TGCTTCACGTGTAGTG, the “relative binding free energy” value was 0.19 kcal/mol. In the case of TTGGCCACGTGGTGGT, the “relative binding free energy” value is reported as -0.08 kcal/mol. With GTGCGCACGTGCTGAG the “relative binding free energy” value was -0.1 kcal/mol. In the case of TTTGGCACGTGTATCT, the “relative binding free energy” value is reported as -0.05 kcal/mol. With AGAATCACGTGTATAT the “relative binding free energy” value was 0.27 kcal/mol. With CAGGACACGTGAGTGG the “relative binding free energy” value was 0.22 kcal/mol. In the case of GTTTTCACGTGAGAAT, the “relative binding free energy” value is reported as 0.49 kcal/mol. In the case of TACGGCACGTGTGGTA, the “relative binding free energy” value is reported as -0.13 kcal/mol. For ATTGCCACGTGTTGAT, the “relative binding free energy” value was 0.01 kcal/mol. For GAAGACACGTGGTGGT, the “relative binding free energy” value was 0.01 kcal/mol. ATTGCCACGTGAGAGT was tested, and the “relative binding free energy” value was 0.11 kcal/mol. In the case of AAGGTCACGTGTATGG, the “relative binding free energy” value is reported as 0.16 kcal/mol. With AATGACACGTGTATTT the “relative binding free energy” value was 0.1 kcal/mol. In the case of TGTCGCACGTGGGCGG, the “relative binding free energy” value is reported as -0.27 kcal/mol. TTCTGCACGTGATTAG was tested, and the “relative binding free energy” value was 0.07 kcal/mol. GGTCCCACGTGTAGGG was tested, and the “relative binding free energy” value was -0.03 kcal/mol. With TACGTCACGTGGAGAG the “relative binding free energy” value was 0.13 kcal/mol. With GTAAGCACGTGATTGA the “relative binding free energy” value was 0.15 kcal/mol. For GGATTCACGTGAGGGC, the “relative binding free energy” value was 0.43 kcal/mol. With TTATTCACGTGTATAA the “relative binding free energy” value was 0.31 kcal/mol. For AAGTGCACGTGGTCAT, the “relative binding free energy” value was -0.13 kcal/mol. With TTGTGCACGTGAATAA the “relative binding free energy” value was 0.26 kcal/mol. In the case of CTGAGCACGTGATTTG, the “relative binding free energy” value is reported as 0.09 kcal/mol. In the case of TTAATCACGTGAGTAT, the “relative binding free energy” value is reported as 0.4 kcal/mol. With GAATACACGTGAGGTT the “relative binding free energy” value was 0.34 kcal/mol. For ACGGGCACGTGGGTGT, the “relative binding free energy” value was -0.28 kcal/mol. With TATTACACGTGGGATA the “relative binding free energy” value was 0.16 kcal/mol. TTTTCCACGTGTCTTA was tested, and the “relative binding free energy” value was 0.19 kcal/mol. For CTCGTCACGTGTGGTC, the “relative binding free energy” value was 0.23 kcal/mol. TCGGGCACGTGAGGTT was tested, and the “relative binding free energy” value was 0.11 kcal/mol. With AGGTGCACGTGGGTAC the “relative binding free energy” value was -0.23 kcal/mol. For GCGGTCACGTGATATT, the “relative binding free energy” value was 0.29 kcal/mol. With TCGGACACGTGTTGTT the “relative binding free energy” value was -0.09 kcal/mol. In the case of AAGGTCACGTGTGGTA, the “relative binding free energy” value is reported as 0.19 kcal/mol. GTTGACACGTGGTTCA was tested, and the “relative binding free energy” value was -0.03 kcal/mol. GTTGTCACGTGTGCAT was tested, and the “relative binding free energy” value was 0.13 kcal/mol. GGTATCACGTGCGGGC was tested, and the “relative binding free energy” value was 0.23 kcal/mol. For CTGATCACGTGGAAGG, the “relative binding free energy” value was 0.18 kcal/mol. GTTTTCACGTGCGTGC was tested, and the “relative binding free energy” value was 0.24 kcal/mol. ATTATCACGTGAAGCG was tested, and the “relative binding free energy” value was 0.28 kcal/mol. In the case of TTTGCCACGTGTGTAA, the “relative binding free energy” value is reported as -0.15 kcal/mol. With AAGTGCACGTGGAGTT the “relative binding free energy” value was 0.03 kcal/mol. In the case of TGGGGCACGTGTATTC, the “relative binding free energy” value is reported as 0.04 kcal/mol. TAGAACACGTGGGTGT was tested, and the “relative binding free energy” value was -0.19 kcal/mol. GGTGACACGTGGCAGA was tested, and the “relative binding free energy” value was 0.04 kcal/mol. For TTTTACACGTGATTCG, the “relative binding free energy” value was 0.32 kcal/mol. In the case of GGGTACACGTGGGAGC, the “relative binding free energy” value is reported as -0.1 kcal/mol. In the case of TGTTACACGTGGTGTT, the “relative binding free energy” value is reported as 0.02 kcal/mol. For TATTTCACGTGTTTCT, the “relative binding free energy” value was 0.19 kcal/mol.
